From PubChem BioAssay AID588855 (National Center for Advancing Translational Sciences (NCATS), 2011)
Screen size: about 410,000 compounds; about 5,000 (1.2%) were called active. The shares of active, inactive and inconclusive entries below differ from those in the screen. The call rests on the fitted dose curve; in most records, active means well fitted inhibition curve with a large enough effect; inconclusive means small, poorly fitted or top-dose-only effect; inactive means no such curve, though single readings can be large or run the other way. Potencies of inconclusive entries are doubtful fits and often do not repeat.

Test: qHTS for Inhibitors of TGF-b; further: nearly all actives have a fitted effect of over 65% in size
Settings: HepG2 CAGA-GFP TGF-b/SMAD3 reporter, GFP fluorescence, 18 h, TGF-beta stimulated, 500 pg/mL final; series mostly up to 46.1 µM
In short: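 TGF-beta reporter screen: HEPG2 CAGA-GFP, 1% FBS, 500 pg/mL TGF-beta final, 18 h; per-cell GFP summed per well; curves fitted and categorized by class.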
Potency means the concentration at half of the fitted maximal effect; tags describe the fitted curve by direction and shape.

Row | Structure (SMILES) | Potency
1 | COc1ccc(C(c2nnnn2-c2ccc3c(c2)OCCO3)N2CCN(C/C=C/c3ccccc3)CC2)cc1 (configuration not stated) | inconclusive: 20 µM [inhibitor, single point]
2 | C[C@H](CO)N1C[C@H](C)[C@@H](CN(C)C(=O)Nc2ccc(C(F)(F)F)cc2)Oc2ccc(NS(=O)(=O)c3ccc(F)cc3)cc2C1=O | inconclusive: 35.5 µM [inhibitor, single point]
3 | O=C(N/N=C/c1ccc([N+](=O)[O-])o1)c1sc2ccccc2c1Cl | inconclusive: 20 µM [inhibitor, single point]
4 | O=C(O)c1ccccc1N(c1ccccc1)c1ccccc1 | inactive
5 | O=C(CSc1nnc(-c2cccnc2)n1Cc1ccco1)c1ccc(Br)cc1 | inactive
6 | O=C(O)/C(=C\c1ccco1)NC(=O)c1cccc2ccccc12 | inconclusive: 35.5 µM [inhibitor, single point]
7 | CCCc1cc2c(=O)n(NC(=O)c3nn(C)cc3[N+](=O)[O-])c(C)nc2s1 | inconclusive: 0.251 µM [inhibitor, full curve, poor fit]
8 | CCN(CC)S(=O)(=O)c1cc([N+](=O)[O-])ccc1NNC(=O)Nc1ccc(F)cc1 | inconclusive: 20 µM [inhibitor, single point]
9 | CCOC(=O)c1[nH]ncc1CN1CCCC(C(=O)c2ccc(OC)c(OC)c2)C1 (configuration not stated) | inconclusive: 11.2 µM [inhibitor, single point]
10 | CCCOc1ccc(C(=O)NCC(C)(C)N2CCOCC2)cc1 | inactive
11 | CSc1ccc(CN(C)CC(=O)NC(=O)NCCC2=CCCCC2)cc1 | inconclusive: 14.1 µM [inhibitor, single point]
12 | CCOc1ccc2ncc3c(-c4ccc(C)cc4)nn(-c4cccc(F)c4)c3c2c1 | inactive
13 | C/C(=N\NC(=S)Nc1c(C)cccc1C)c1ccc(O)cc1 | inconclusive: 22.4 µM [inhibitor, single point]
14 | C=CCOc1c(Br)cc(/C=N/n2c(CC)n[nH]c2=S)cc1Br | inconclusive: 12.6 µM [inhibitor, single point]
15 | O=[N+]([O-])c1cccn2cc(-c3ccc(Br)cc3)nc12 | inactive
16 | CCOc1ccc(OCC)c(NC(=O)c2cc(S(=O)(=O)N3CCc4ccccc43)cn2C)c1 | inactive
17 | COc1ccc(CSC2=NCCN2)cc1Br | inconclusive: 35.5 µM [inhibitor, single point]
18 | CSc1nc2nc3c(cc2c(=O)n1-c1ccccc1C)CCCC3 | inconclusive: 25.1 µM [inhibitor, single point]
19 | CCCOc1ccc(C2c3c(-c4ccccc4O)n[nH]c3C(=O)N2CCc2ccccc2)cc1OCC (configuration not stated) | active: 11.2 µM
20 | COc1ccc(C(=O)c2oc3ccccc3c2NC(=O)c2cc(=O)c3ccc(C)cc3o2)cc1Cl | inactive
21 | CCOC(=O)c1sc(NC(=O)C(CC)OC(=O)C(CC(C)C)NC(=O)c2ccccc2)nc1C (configuration not stated) | inconclusive: 1.41 µM [inhibitor, partial curve, poor fit]
22 | O=[N+]([O-])c1ccccc1-c1ccc(C(=S)N2CCCC2)o1 | inconclusive: 22.4 µM [inhibitor, single point]
23 | O=Cc1coc2ccc3ccccc3c2c1=O | inconclusive: 35.5 µM [inhibitor, partial curve, poor fit]

Row | Structure (SMILES) | Potency
24 | Cc1ccc(S(=O)(=O)CC(=O)Nc2nc3c(C)cc(C)cc3s2)cc1 | inconclusive: 5.01 µM [inhibitor, single point]
25 | COc1cc(-c2nc3ccc(C)cn3c2NCc2ccccc2)ccc1-c1cccc(Cl)c1 | inconclusive: 11.2 µM [inhibitor, single point]
26 | CCOc1ccc(-c2cccc(NS(=O)(=O)c3ccc(F)cc3F)c2)nn1 | inconclusive: 2.82 µM [inhibitor, single point]
27 | O=C(COC(=O)CCOc1ccccc1)Nc1ncc(Cl)cc1Cl | inactive
28 | COc1ccc(-c2noc(CNC(=O)c3ccccc3Br)n2)cc1 | inactive
29 | CC1(C)Cc2noc(N)c2C(C)(C)N1OC(=O)c1scc2c1OCCO2 | inconclusive: 35.5 µM [inhibitor, single point]
30 | Cc1ccccc1OCc1ccc(-c2nc(C#N)c(N3CCN(c4cccc(Cl)c4)CC3)o2)o1 | inconclusive: 28.2 µM [inhibitor, single point]
31 | Cc1ccc(C2CC(c3ccccc3)=NN2c2ccccc2)o1 (configuration not stated) | inconclusive: 20 µM [inhibitor, partial curve, poor fit]
32 | O=C1NC(c2ccccc2)=NC1(NS(=O)(=O)c1ccc(Cl)cc1)C(F)(F)F (configuration not stated) | inconclusive: 6.31 µM [inhibitor, single point]
33 | CCOC(=O)C1Nc2ccc(C(F)(F)F)cc2C2c3ccccc3CC12 (configuration not stated) | inconclusive: 20 µM [inhibitor, single point]
34 | O=C(NC1CCCc2ccccc21)c1ccc(Br)cc1 (configuration not stated) | inconclusive: 35.5 µM [inhibitor, single point]
35 | N/C(=N\OC(=O)c1ccc(Br)o1)c1ccccn1 | inconclusive: 10 µM [inhibitor, partial curve, poor fit]
36 | CCOc1ccc(N(CC(=O)NCc2cccnc2)S(=O)(=O)c2ccc(F)cc2)cc1 | inactive
37 | Cc1cc(C)cc(NC(=O)Cc2noc3ccccc23)c1 | inactive
38 | O=C(c1ccccc1)N1c2nc(-c3ccco3)nn2C2(CCCCC2)[C@@H]2CCCC[C@@H]21 | inconclusive: 35.5 µM [inhibitor, single point]
39 | CC(C)(c1ccccc1)c1ccc(OCC(O)CNC2CCN(Cc3ccccc3)CC2)cc1 (configuration not stated) | inconclusive: 35.5 µM [inhibitor, single point]
40 | O=C(COC(=O)c1cncc(Br)c1)Nc1ccc(F)c(F)c1F | inactive
41 | Cc1ccc(S(=O)(=O)N2CCN(C(=O)Cn3c(=O)cnc4ccccc43)CC2)cc1 | inactive
42 | C#CC[N+]1(CC#Cc2ccccc2)CCOCC1 | inactive
43 | CCOC(=O)N1CCC(NS(=O)(=O)c2ccc(C)c(Cl)c2)CC1 | inactive
44 | CC1(C)CC2CC(C)(CN2C(=S)NC(=O)c2ccccc2Cl)C1 (configuration not stated) | inactive
45 | CCOc1ccc(N/C(C)=C/C(=O)c2ccc3c(c2)OCCO3)cc1 | inconclusive: 35.5 µM [inhibitor, single point]
46 | Cc1ccc(CN2CC(C(=O)N3CCN(S(=O)(=O)c4ccc(C(C)C)cc4)CC3)CC2=O)cc1 (configuration not stated) | inconclusive: 6.31 µM [inhibitor, full curve]

Row | Structure (SMILES) | Potency
47 | Cc1ccc(S(=O)(=O)c2c(C)nn(C(C)(C)C)c2OC(=O)C(C)C)cc1 | inconclusive: 14.1 µM [inhibitor, single point]
48 | Cc1ccc2nc(-c3ccccc3)c(CN3CCSCC3)n2c1 | inactive
49 | CC(C)Cn1c(-c2cccc(Br)c2)nc2ccccc21 | inconclusive: 35.5 µM [inhibitor, single point]
50 | Cc1ccc(-c2cc(C(=O)N/N=C/c3c(C)nn(C)c3C)c3ccccc3n2)cc1C | inconclusive: 35.5 µM [inhibitor, single point]
51 | C#CCOCCOCCOCCNc1nc(N2CCN(C(=O)CCCCCCCCCCNC(=O)[C@H](CCCCN)n3cc(CCO)nn3)CC2)nc(N2CCN(C(=O)CCCCCCCCCCNC(=O)[C@H](CCCCN)n3cc(C[C@@H](C)CC)nn3)CC2)n1 | inconclusive: 35.5 µM [inhibitor, single point]
52 | CCOc1ccc(CCN2C(=S)N([C@@H](CC(C)C)CN3CCCC3CN3C(=S)NC[C@@H]3Cc3ccc(O)cc3)C[C@@H]2Cc2ccc(O)cc2)cc1 (some centres not stated) | active: 7.08 µM
53 | COc1cc(/C=C(/C(=O)c2cccs2)c2nc3ccccc3[nH]2)ccc1O | active: 15.8 µM
54 | O=C(NN1CCOCC1)c1cc(-c2cccc(Cl)c2)nc2ccccc12 | inactive
55 | O=S(=O)(NC1CC1)c1ccc(S(=O)(=O)N2CCCC3(CCCCC3)C2)cc1 | inconclusive: 22.4 µM [inhibitor, single point]
56 | CCCCn1nc(C(=O)NCC(=O)Nc2c(C)cccc2C)c2ccccc2c1=O | inconclusive: 5.62 µM [inhibitor, single point]
57 | COc1ccc(CC(N)c2csc(NC(=O)Nc3ccc(F)cc3)n2)cc1 (configuration not stated) | active: 11.2 µM
58 | COc1ccc(NC(=O)/C(Cl)=C(/Cl)S(=O)(=O)Cc2ccc(C)cc2)cn1 | inconclusive: 3.98 µM [inhibitor, full curve, poor fit]
59 | COc1ccc(OC)c(NS(=O)(=O)c2ccc(NC(=O)C3COc4ccccc4O3)cc2)c1 (configuration not stated) | inconclusive: 6.31 µM [inhibitor, partial curve]
60 | Cc1cc(NC(=O)C(C)SCC(=O)Nc2ccc(SC(F)F)cc2)no1 (configuration not stated) | inactive
61 | CC(C)(C)NS(=O)(=O)c1ccc(NC(=O)C(Sc2ccccc2)c2ccccc2)cc1 (configuration not stated) | inconclusive: 35.5 µM [inhibitor, single point]
62 | O=C(CNC(=O)c1ccccc1Cl)N/N=C/c1ccc([N+](=O)[O-])s1 | active: 12.6 µM
63 | CC(=O)Nc1ccc(-c2csc(NC(=O)CCNC(=O)c3ccco3)n2)cc1 | inactive
64 | COC(CNC(=O)c1c[nH]c2ccc(S(=O)(=O)N3CCC4(CC3)OCCO4)cc2c1=O)OC | active: 3.55 µM
65 | Cc1ccc(NC(=O)c2ccc3ccccc3n2)cc1S(=O)(=O)N1CCOCC1 | inconclusive: 15.8 µM [inhibitor, partial curve, poor fit]
66 | Cn1ccc2c(N3CCCCC3)cc3c(c21)C1CCC3C1 (configuration not stated) | inactive
67 | CN1C(=O)/C(=C/c2ccccc2Cl)Sc2ccc(C(=O)N3CCCC3)cc21 | inconclusive: 22.4 µM [inhibitor, single point]
